Source: ChEMBL document CHEMBL1157539, “Thousands of chemical starting points for antimalarial lead identification” (Nature, 2010)
Values joined by “and” are separate entries in the source; they are usually repeats but may differ in a detail not shown here. Equal entries are not always repeated. Whole data set: some 13,000 compounds, median “IFI” near 4, cut for the highest 2% near 17. This is one part of the list.

assay: GSK_TCMDC: Inhibition Frequency Index (IFI). The number of non-kinase HTS assays where a compound showed > 50 % inhibition, expressed as a percentage of the number of such assays in which the compound was tested (-0 is zero); type: functional

| Structure (SMILES) | IFI |
| --- | --- |
| O=C(NCc1cccs1)[C@H](Cc1ccccc1)Nc1ccnc(NCCc2ccc(F)cc2)n1 | 9.3% |
| CCCC(CNCc1cccc(OCC)c1)CNc1cc(=O)c2ccccc2[nH]1 (centres undefined) | 3.62% |
| COc1cc2nc(NCc3ccccc3)nc(NCc3ccccc3)c2cc1OC | 7.56% |
| O=C(NCCCN1CCCC1=O)c1cnc(N2CCC(Oc3ccccc3)CC2)c(Cl)c1 | 3.7% |
| CCCCC(=O)N(CCOC)Cc1ccc(-c2ccc(CNCCC)cn2)cc1 | -0% |
| CC12CCC(C(=O)N(CC(O)Cn3c4ccc(Cl)cc4c4cc(Cl)ccc43)C1=O)C2(C)C (centres undefined) | 0.74% |
| O=C(/C=C/c1ccc([N+](=O)[O-])cc1)N1CCC(NS(=O)(=O)c2ccc(Br)cc2)CC1 | 0.74% |
| O=C(c1cc(C(=O)Nc2ccc(F)cc2)c(=O)n(-c2ccc(F)cc2)c1)c1cc(Cl)ccc1O | 6.16% |
| O=C(Nc1ccc(OC2CCN(Cc3ccc(F)cc3)CC2)cc1)c1cccs1 | 1.61% |
| CC(C)CNCc1ccc(-c2ccccc2CNC2CCN(Cc3ccccc3)CC2)cc1 | 5.84% |
| Cc1cccc2nc(-c3ccc(-c4ccc(NC(=O)c5cncn5C)cc4)s3)[nH]c12 | 4.5% |
| O=C(Cc1c[nH]cn1)Nc1ccc(-c2cccc(-c3nc4cc(F)ccc4[nH]3)c2)cc1 | 2.78% |
| Cc1ccccc1C1CCN(C2CCC(NC(=O)/C=C/c3cc(F)ccc3F)CC2)CC1 (centres undefined) | 6.67% |
| CC1CCCN(Cc2c(O)ccc3c(O)c(-c4nc5ccccc5s4)c(=N)oc23)C1 (centres undefined) | 5.31% |
| CCOc1ccc(Br)cc1/C=C/C(=O)Nc1ccc(C2CCN(C)CC2)cc1 | 15.5% |
| CN1CCN(CCCN(Cc2ccc(-c3ccc(CNCc4ccc5c(c4)OCO5)cc3)cc2)C(=O)Nc2ccccc2)CC1 | 5.11% |
| O=C(Nc1ccccc1O)c1ccc(S(=O)(=O)c2ccc(Cl)cc2)cc1 | 0% |
| COc1ccc(Br)cc1/C=C/C(=O)Nc1ccc(C2CCCN(C)C2)cc1 (centres undefined) | 5.26% |
| COc1cc2nc(Nc3ccc(N4CCOCC4)cc3)nc(N)c2cc1OC | 1.99% |
| Cc1cc2c(cc1C(F)(F)F)N(C(=O)Nc1cc(C(=O)NC3CCN(Cc4ccccc4)C3)cc(C(F)(F)F)c1)CC2 (centres undefined) | 4.26% |
| CCN(CCCN1CCCCC1)c1cc(C)nc(Nc2ccc(C)c(C)c2)n1 | 6.33% |
| Nc1c2c(nc3ccc(NC(=O)c4ccc([N+](=O)[O-])cc4)cc13)CCCC2 | 3.7% |
| COc1cc(Cc2cnc(N)nc2N)cc(OCCCCCCC(=O)O)c1OC | 1.39% |

| Structure (SMILES) | IFI |
| --- | --- |
| CCc1cn(CC(=O)N(CCOc2ccc(-c3ccc(C(F)(F)F)cc3)cc2)CCN(CC)CC)c(SCc2ccc(F)cc2)nc1=O | 6.34% |
| Nc1c(Cl)cc(C(O)CNCCCCCCOCCC=C2CCOCC2)cc1Cl (centres undefined) | 2.86% |
| CC(C)CCN1CCCN(Cc2cccc(NC(=O)c3ccc(-c4ccccc4)cc3)c2)CC1 | 5.48% |
| CC(C)NCc1ccc(-c2cccc(CN3CCC(c4ccccc4)CC3)c2)c(C(=O)NCC2CCCCC2)c1 | 8.05% |
| O=C(NCCCCN1CCCC2c3ccc(O)cc3CCC21)c1ccc(-c2ccccc2)cc1 (centres undefined) | 6.87% and 7.63% |
| CCCN(CCC)C(=S)N/N=C1/C(=O)Nc2ccccc21 | 4.41% |
| CC(C)CC1(C(=O)OC(C)(C)C)CC(C(=O)OC(C)(C)C)C(c2cccs2)N1C(=O)c1ccc(C(C)(C)C)cc1 (centres undefined) | 1.47% |
| O=C(Nc1cccc(N2CCC(NCCCc3ccncc3)CC2)c1)c1cccc(C(F)(F)F)c1 | 2.38% |
| O=C(NCCCc1ccccc1)c1ccc(O)c(-c2cc(Cl)cc(Cl)c2)c1 | 2.96% |
| CC(C)NCc1ccc(-c2ccc(-c3nc4cc(C(F)(F)F)ccc4[nH]3)cc2)cc1 | 8.57% |
| CC(C)c1ccc(NC(=O)c2ccc(C(=O)NCC3CCN(CC4CCCCC4)CC3)cc2)cc1 | 3.48% |
| CCOc1cc2c(cc1S(=O)(=O)c1ccc(COc3ccc(C(F)(F)F)cc3)cc1)CCN(C)CC2 | 9.79% |
| COc1cc(NC(=O)c2sc(-c3ccc(Cl)cc3)cc2NC(=O)CN2CCCC2)ccc1OCCN1CCCC1 | 7.91% |
| CCOc1ccc(-c2nonc2NC(=O)c2cccs2)cc1OCC | -0% |
| CC(C)NCC(=O)Nc1cccc(C(=O)Nc2cccc(C(F)(F)F)c2)c1 | 2.04% |
| CC1CCc2sc(-c3nnc(SC(C)C(=O)N4CCCC4)o3)cc2C1 (centres undefined) | 2.04% |
| O=C(C=Cc1ccc(-c2nc3ccccc3[nH]2)cc1)NC1CCN(Cc2ccccc2)CC1 | 2.27% |
| O=C(NOCc1ccccc1)c1cc(Cl)ccc1O | 0.72% |
| COc1ccc(OC)c2c1CCN(CCN1CCC(C(=O)Nc3ccc(C(=O)Nc4ccc(Cl)cc4)cc3)CC1)C2 | 3.64% |
| Cn1nccc1C(=O)NCCNCc1cccc(-c2csc(-c3nc4ccccc4[nH]3)c2)c1 | 3.88% |
| CC1(C)CCC(C)(C)c2c1ccc(C1CCN(CCCCNC(=O)c3ccc(-c4ccc(Cl)cc4)cc3)CC1)c2O | 13.7% |
| CN(CCCNc1ccc(C(=O)Nc2ccc(C(F)(F)F)cc2)cc1[N+](=O)[O-])Cc1ccccc1 | 3.7% |
| CCOC(=O)c1c[nH]c2c(ccc3ccccc32)c1=O | -0% |

| Structure (SMILES) | IFI |
| --- | --- |
| COc1ccc(Cl)cc1NC(=O)Nc1ccc2c(c1)CCN(C1CCC1)CC2 | 3.88% |
| CN(C)CCCn1cncc1-c1ccc2ncnc(Nc3ccc(OCc4ccccc4)cc3)c2c1 | 4.44% |
| CN(C)Cc1cccc(CNC(=O)c2sccc2OCc2ccc(Cl)cc2)c1 | 4.85% |
| COc1ccccc1C1CC(c2ccccc2)=NN1C(=O)c1ccco1 (centres undefined) | -0% |
| Nc1nc(N)c2c(ccc3c2ccn3CCCF)n1 | 3.74% |
| COc1ccc(NC(=O)[C@H](Cc2ccccc2)Nc2cc(C)nc(NCCc3ccccc3)n2)cc1 | 9.09% |
| COCCOC(=O)C(=O)c1c(-c2ccccc2)c(-c2ccc(OC)c(OC)c2)c2c3cc(OC)c(OC)cc3ccn12 | 3.45% |
| CC(C)c1cc(N)c2cc(NC(=O)COCC(=O)Nc3ccc4nc(C(C)C)cc(N)c4c3)ccc2n1 | 0.73% |
| CCN1CCC(N(Cc2ccc(-c3ccc(C(F)(F)F)cc3)cc2)C(=O)Cn2c(CCc3cccc(F)c3F)cc(=O)c3c2CCC3)CC1 | 4.96% |
| c1csc(-c2nc(NCC3CCCO3)ncc2-c2ccsc2)n1 (centres undefined) | 1.12% |
| O=C(Nc1ccc2c(c1)CCC2)c1nc(N2CCN(c3ccncc3)CC2)ccc1Cl | 13.8% |
| Cc1ccc(N2C(N)=NC(N)=NC2c2ccccc2)cc1 (centres undefined) | 0% |
| Cc1ccc(C2CCN(CCCCNC(=O)c3ccc(NC(=O)c4ccc(Cl)cc4)cc3)CC2)c(C)c1 | 3.01% |
| COc1ccc2ncc(Cl)c([C@H](O)CN3CCC(NCc4cc5c(cn4)OCCO5)CC3)c2c1 | 1.77% |
| COc1cc2c(=O)c(Cc3ccc(Cl)cc3)c(C)[nH]c2cc1F | 1.52% |
| Cc1ccc(Nc2nc3cc(Nc4ccnc(Nc5cccc(CS(C)(=O)=O)c5)n4)ccc3o2)cc1 | 10.9% |
| CC(C)NCc1ccc(-c2ccc(NC(=O)c3cccc(C#N)c3)cc2)cc1 | 8.16% |
| Cc1ccc(Cn2ncc(NC3CCNCC3)c(Cl)c2=O)cc1NC(=O)Nc1ccc(-c2ccccc2)cc1 | 6.16% |
| C[C@@H](CC1CCCCC1)OC(=O)N(C)[C@@H]1CCN(C#N)C1 | 2.94% |
| Cc1cc(N[C@@H](Cc2ccccc2)C(=O)NCCc2ccccc2)nc(NCCc2cccs2)n1 | 14.6% |
| Oc1ccc2[nH]cc(C3CCN(CCCCCCCCCN4CCC(c5c[nH]c6ccc(O)cc56)CC4)CC3)c2c1 | 7.63% |
| Cc1[nH]c(C)c(-c2cccc(-c3ccc(OC(F)(F)F)cc3)c2)c(=O)c1Br | 11.4% |
| FC(F)(F)c1ccc2[nH]c(-c3ccc(-c4cccc(CN5CCN(c6ccncc6)CC5)c4)cc3)nc2c1 | 13.1% |

| Structure (SMILES) | IFI |
| --- | --- |
| Nc1cccc(CNCc2cccc(-c3cccc(-c4nc5cc(C(F)(F)F)ccc5[nH]4)c3)c2)c1 | 11.4% |
| CCOc1cccc(C2c3c(oc4ccccc4c3=O)C(=O)N2CCN(CC)CC)c1 (centres undefined) | 0.85% |
| N#Cc1ccc(N/C(=N\c2ccc(-c3ccccc3)cc2)NCc2cccnc2)c(O)c1 | 2.24% |
| COc1cc(NC(=O)c2sc(-c3ccc(Cl)cc3)cc2NC(=O)c2cccnc2)ccc1OCCN1CCCC1 | 7.19% |
| O=C(c1ccc(Cl)cc1)C1CCN(CCCOc2ccc3c(c2)CCNCC3)CC1 | 7.25% |
| Cc1cc(N2CCCC2)nc(Nc2ccc(NC(=O)c3ccc4c(c3)OCO4)cc2)n1 | 9.8% |
| Cc1cc(=NN=Cc2ccccc2F)c2cc(C(F)(F)F)ccc2[nH]1 | -0% |
| O=C1c2ccc([N+](=O)[O-])cc2C(=O)N1c1ccc2[nH]ncc2c1 | 0.71% |
| O=C(Nc1cccc(CN2CCCN(Cc3ccsc3)CC2)c1)c1ccc(Cl)c(Cl)c1 | 8.05% |
| N#Cc1ccc(-c2cnc3ccc(NCc4ccc(S(N)(=O)=O)cc4)nn23)cc1 | 3.82% |
| CC(N)(Cc1ccc(O)cc1)c1nnn[nH]1 (centres undefined) | -0% |
| CCN(CC)CCN(Cc1ccc(-c2ccc(C(F)(F)F)cc2)cc1)C(=O)CN1C(CCc2cccc(F)c2F)=NS(=O)(=O)c2ccccc21 | 5.8% |
| O=C(/C=C/c1ccc(Cl)cc1)NCCCCCN1CCC(c2c[nH]c3ccccc23)CC1 | 7.19% |
| O=C(NCC1CCC(C(=O)O)CC1)c1ccc(/C=C/C(=O)N2CCc3ccccc3C2c2ccc3c(c2)OCO3)cc1 (centres undefined) | 1.55% |
| CNC(=O)COC(=O)c1c2c(nc3ccccc13)C(=Cc1ccc3c(c1)OCO3)CCC2 | 9.72% |
| NC(=O)c1cccc(C(=O)Nc2ccc(-c3cccc(-c4nc5cc(F)ccc5[nH]4)c3)cc2)c1 | 1.74% |
| CC(C)C[C@H](NC(=O)c1cc2ccccc2s1)C(=O)N[C@H]1CCN(Cc2ccc(I)c(OCCN3CCCC3)c2)C1 | 13.3% |
| COc1ccc(CNC(=O)c2cnc3c(O)cccc3c2Nc2cccc(NC(=O)c3ccc(Cl)c([N+](=O)[O-])c3)c2)cc1 | 6.25% |
| CC(C)(C)c1nn(-c2ccc(Cl)cc2)c2[nH]c(=O)c(CNCc3cccs3)cc12 | 8.33% |
| COc1ccc(N2CCN(CCCCNC(=O)c3ccc(NC(=O)c4ccc(OC(F)(F)F)cc4)cc3)CC2)c(OC)c1 | 6.14% |
